# Measured values from article PMC10726135.
# This is one part of the list. At the low end of the ranking, values are background and their order means little. The protein was read in a cell extract, so binding may be indirect.
# Molecular target: T1, HNF4alpha8 (COS-7 nuclear extract) (UniProt P41235-5)
# T1 sequence: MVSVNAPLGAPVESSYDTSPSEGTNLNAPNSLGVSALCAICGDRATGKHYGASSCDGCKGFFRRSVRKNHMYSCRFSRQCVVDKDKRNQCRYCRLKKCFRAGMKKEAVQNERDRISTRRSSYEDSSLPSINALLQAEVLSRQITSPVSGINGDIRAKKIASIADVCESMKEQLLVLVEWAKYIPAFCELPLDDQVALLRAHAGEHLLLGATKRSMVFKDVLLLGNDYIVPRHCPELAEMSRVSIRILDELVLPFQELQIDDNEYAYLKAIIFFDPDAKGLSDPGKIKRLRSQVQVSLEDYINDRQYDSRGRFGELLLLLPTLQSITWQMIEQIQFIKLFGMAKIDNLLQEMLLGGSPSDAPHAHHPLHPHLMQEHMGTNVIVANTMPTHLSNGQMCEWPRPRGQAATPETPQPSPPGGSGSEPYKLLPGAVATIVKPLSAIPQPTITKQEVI
# Assay: protein-binding microarray
# Conditions: COS-7 nuclear extract on double-stranded Agilent 4x180k PBM; binding buffer, salt, pH and temperature not given; high values mean tight binding; double strand, one strand shown; sequences stand for … in …GCCTAGGGAGATTAGAGTATCGGTCGA
row,Sequence,binding signal (log2 normalized intensity)
1,TCTTAAGCTAACATGTACAGTATTGCGTAA,-1.29
2,ACTTCACTCAGTGGGGTGTCTGTGTGCCTC,1.82
3,CCTTTGGAAGGTGGGGGAGGAGACAGCTAC,-1.3
4,CATAAGCCTTGCTGAGGAATTTGGACTTCA,5.01
5,AGTGTTTTATGTGTATTTACTTATTGATAA,1.99
6,AGGCAGATATACCAGATAAGGCAGTGGTTT,-0.984
7,ATCTCACATTCGTTAACATCAGCTGAGCAG,0.803
8,TGGGAGGCAAAGGTTGCAGTGAGCTGTGAT,1.8
9,TTTGTCAGCATCTTCACCGTAAAGCCACCC,0.913
10,ACAGTCCCTCCTCCAGCATAGGCTAGGACC,-0.686
11,TAAGCGCTGCCCTGGTAAGTTCCACTGCAT,-1.23
12,GGCCTACTTAGTCCAGGTTTAGCAAGAATA,-1.27
13,TCAGATTCCTCACTGATAAAACTGGAATAA,-1.34
14,TGGAGATAATAGGAGATAATAATACTTATC,-1.22
15,TTATCTTCTCCCCTGCCAAATCATGGAGGT,1.34
16,AAATGTCCTGAGTGATTGTAGTGTCATTGT,1.81
17,GCCTGCCTGCCAACTCCACGCCCGCCGCCA,-1.15
18,AGGCCTGGAACCTGTCTGACAGGATGAATT,-1.33
19,TACTTTGGACTGGGGACCTGGTCTGAGATA,1.25
20,CGCGCGGGAGGAGGAGACAAAGGCCGCGCC,2.13
21,TCACTGCTCTGGCCACTCCCTGGGCAGTGC,-1.21
22,GGTGAGAGGGCTCTGTCTGCTGGGCCTTCA,-1.21
23,GGCTCAGGTTGCTGCCAGAGGGTGGCAGCA,-1.02
24,TCGCGAATCTGGCTAATGCATGTCCCTCCT,0.811
25,TTAATTTAGCACTTAGTTCCCCAAATATTC,1.63

row,Sequence,binding signal (log2 normalized intensity)
1,ACAAAAACTGTTTCTATGTGACCTTCACCC,5.89
2,CCAGTTCTGTGTACAAAGCCCCATATTCAT,1.86
3,CTGGGAACAAGTTCTGCAGACTCCCTAGAA,-1.15
4,CTCAAGGCAAGTTGCTTCCACCTATGAGTC,0.0563
5,CGACCTGCTGGGCTGCATTCCCAGATGGTT,-1.44
6,GGCTAGATTGCAACCAAGTCCATCTGTATT,0.652
7,ATTATGAACTAATTTGTCTTTTCTCCCCCG,4.22
8,ATCTCTGCTCATAATGCCAGGCAGGAAGGA,-1.15
9,AGACCTCCCCCAACTTACTTAGTGGCTCCT,2.35
10,GGCCACTCCCTGGGCAGTGCAGTATGCGCT,-1.33
11,AGGTGAACCAGGGTGCAATTCGCATTTCTG,-1.02
12,AGGGAATGTAAGGCACTTTATCTAGATAAG,-1.23
13,GGAGCATGGGGGATGGGGCCTGGGAGATAA,-1.35
14,TTATCACTTTGTAATGTCCCTCTTTATCTC,1.39
15,TCATCCGCATCTGAAGATAAGAGAAGTTGC,-1.03
16,ATGGGGGATGGGGCCTGGGAGATAAGGGTT,-1.23
17,GGGAGGAGTTCAGATCACAAAGGAGCTTGT,-1.35
18,CCCTCTCCCACTCCCCTCCTCCAGATGGGC,4.18
19,TCCCTCACTGGAGGTTGAATTCCAAAGGTT,4.1
20,CTGGGACGTGGCTCAAGATTACAGGTGATC,0.759
21,TCAGCCTTAACTCAAAAGGCCAAAGTCCAA,9.11
22,GGCAAGTGGTCATGTAGGTGTCTCAGGAAT,1.03
23,CATGAAGCTTCCCCTTTAACCAATATTAGC,0.107
24,TGAACTACACAGATTCTGCAAACCTATTAA,-1.38
25,GGGCCGGTACAAAAGGCCAAAGCCAGGGGA,-1.05

row,Sequence,binding signal (log2 normalized intensity)
1,CTTGCCGCATTCCCAGCATTCCAAGTGAGT,-0.88
2,GGTAGTGGACTCTAAGGCAAAACACCCCTT,2.43
3,GGACTAAGAATTGCTCAACCTGGACCTCAT,1.89
4,TCCCACTAGGTGGCGCTGTTGACCTTGAAA,3.78
5,TTAGTTCTGCAAACACCCCTCCCCCACACA,5.7
6,GAAACTCACATACTGTGGACATAAAAAGAT,-0.748
7,CCCAGCTTTCATCTCGGCTGGCTACTGCTC,-1.29
8,TACTGCAACCTGTTTTACCAGGAAGGGCTT,-1.32
9,AAATGGAGCAGCTCTGTATTGAGATAAGCA,-1.26
10,ACAGCAACTAGCAACTTGGACCTTGATAGG,4.7
11,AGCAGATGGCCAGCCTTTGGACTTTGAACT,11.2
12,AATTCCAGCTTCCCCACTTATTACCGGTGT,0.859
13,TGGACTCTGCAAGGAAGGTGGGGGCCGCCC,1.06
14,CATTGACTTTGCCTTTTGGCTAAAGTCCAA,4.75
15,AGGGAGGCTTTTGCAGTCACTCTCTAGAAT,-1.12
16,GTCCAAAGGTCAGCAAGCCTGGAGTTCTGA,5.05
17,ATTGAATGTGTTACACCTGTGTGTACTGGG,1.83
18,CAGCAGTAACCCCCCAGGAGCGAGTCAAGG,2.91
19,CTCTAGACTCCAGCTAAAGCCTGCTCGTTG,-1.38
20,GCGAGTCCAGCCAGGTTGCATCAGCTGGGC,-1.33
21,ACACCTGCCTTTGATCAGGGACCTTTGTTC,5.31
22,CCGGAGCGGCGGACCCGGCGGACCGGGGGG,-1.27
23,GGCAGGAGTGGGAGGCTGGGGCCTCCTGGC,-1.36
24,TAGACTTTGGACCTGGCCTGCGGGGTCAGG,6.35
25,GGCCGTAAAGATAAGAACGCTAGACACTGG,-1.27

row,Sequence,binding signal (log2 normalized intensity)
1,CTAGCCTCGAGATAACCCACCTCCGGCCGG,-1.35
2,GAGTCATAAAGGGCAGGAACATCAGACACA,-1.16
3,TGAGCAGGATTATAGTTTATCTACCTTTGT,2.05
4,AACTGACTGCATTCCCTTTCTCCTCCCCTC,3.16
5,TGTTTGTTTCACTAATGTAGATTTTCTCTG,0.729
6,AGTGGCCCAGTGTCTCTGGGCGCTGGGAAG,-0.966
7,TCTGTTGTCTCTGTAAATAAATGTCATTTA,1.21
8,CTGCCTGTGCTGTGGCTGCCAAGACACAGA,-0.998
9,GAGTCTTAGAGTCCAGACACAAAGAGACAA,-1.42
10,AAGGAGGTGAACTTTGAGACTATCCTTGGA,4.09
11,TTATTTAGTAGTGGCAAGAGAAGCCCCATG,-0.785
12,TGACTGTGATACCAGGGGTCATTTTATGGG,3.59
13,GGGGAAACAAAATAATAGTTGACCTTTGAG,6.69
14,AGTGTGCACTTTGCACCTGGGCTGGAAAGG,3.95
15,CTGTTTTGGATTTTAAAAGCCCTCAAATAC,0.856
16,TCTCCATTCAGCATTGCTTGGGAGCAGTCC,-0.21
17,ACCACAGCGGGGCCTCTGTGTGGGGCTGAT,-1.33
18,AAAGCCATGAAGCAATTCTGAGCCCAACCT,-1.35
19,ATCATCTCTTGTCTGGAATACCTTCTGCAT,0.321
20,AGATCCATTGCATGTGCATTTCACAATAGG,0.639
21,ACTGTTTGGCCTATGGGAAAACAGGCTCAG,-1.37
22,AAAGCACTTTGCCCCCAAGAAAAGGTTCCT,3.78
23,TTTAACTCTTTATCTTTCTCCTACAGCCTG,-1.24
24,GACTACAAATTCCTCAATCCAGTCATCTCA,-1.33
25,ACCCTGAATGTGTGCTGGCCTGGTTCCTTC,1.34

row,Sequence,binding signal (log2 normalized intensity)
1,ACCTTTGACCCTTTATAATCCCCTATGCTC,4.63
2,ACTTTTGGCCATCGCACGAGCAAGTTTATT,-1.31
3,TGGAGATAACACAACCCCTACTGTACCCTA,2.21
4,TCACCTGGCAAGGCAGCCTCAGCCACACGC,-1.36
5,AGAACTAGCCAGACCTGTTCCTCTGCCCCT,2.76
6,CTCTCTGTGTCACATACACCTGCGTGTACT,1.68
7,AGCTGTGCCCCAGTCCTTCAGTCCTTCCCC,2.67
8,TCAGTAAGGAGAGGGGGCGGGGAGAGGGAA,-1.34
9,TGCCATTCTTCCAGTTGTGTGCACAAGAGG,1.74
10,GCATGGAATGCAGGAGATCCAGTAGGGCGT,-0.5
11,ATGACCTTTGACTGAGATGGGAGCAGTGCT,3.52
12,GACGGCGGATCCTCCCAGCCTGGAGGAGGG,-1.06
13,GCCCTCCCAGCCTATTAACCCCAAATTCCT,4.31
14,CCGGCATGATCTTGCTCTCTTGTGCTCATG,1.34
15,ATCCTTTACCTCCACCTCCAAGGTCCCCAA,3.43
16,ACTCCTCGTGGCCCCTGGGTCGTTGGTGCT,1.21
17,CCTCTGCATTTGCTCCCTGACTTGGTTTAC,1.48
18,TGTGCACAGTCCACAGAAACGCAGTCCTGA,-1.36
19,TCTTGTGGTAATCTCTTTTGTGTTAGAGGG,1.02
20,ATTTTCTAGGAGAATCACTAGGACATATAT,-0.947
21,AACACATACCTTAAATAAGAGACTCAGGCC,-1.03
22,GCAGCTTGTACCCTTCTTTCCACCCTGTTG,1.55
23,GAGAGCATTCTGCTGCTCTTTAATCCTAAT,-1.01
24,CCTCTGGACAAGGGAAGCGTCAATGCCCCA,2.55
25,AGCATGGCCCTTTGCAGCCCGAGCTGCTGG,-1.39

row,Sequence,binding signal (log2 normalized intensity)
1,AGAGAGAGGGAGACAACCTTTGGTCACTTG,4.09
2,GGCTAGGGCAAAGATCAAACATACAGTAAA,2.52
3,ATATAAGGTCCAACTGACATCTGGAAATGT,0.972
4,CTCCAAAGGCTGTTTGCACCGTGTGCTTTG,0.798
5,CTTTGCCCTTTGTTTACATAGCTCCTTCAT,1.42
6,ACATTATCTAACAAGAAGTCTGAAGGCAGG,-1.04
7,TCTGGGGCCCTCTTCTGCATTCTTCTTCTA,-1.2
8,GATCTCCTGCACCTGAACTTTGCTCTGTGA,5.78
9,GTCCCAGTAGATAACTTCAAGGAGCTCGGC,-0.935
10,GAAAGCCAGCAGGGGCTGCTGGGAGTTGTA,0.219
11,GGTTAGCAAGGGCCCCCACTAGAGAGACCG,1.75
12,TGCCCAGCTTGAATCACTCACTGACCTCTT,4.46
13,GGGAGTTGTAGTTTTTTGGGCCCCTAGACT,0.928
14,TTAATGTCAAACTGATCAGAAGTGGTTACA,0.916
15,ACTTTGGTTCACCGCTCACTGCTCCAGCCA,-1.39
16,CACATTGCAGTATGCCCCCCCACCCCACAC,6.96
17,CTAGATTCCAGGAAGAAAGATTGAAGTCTG,-1.11
18,ACTTTGACCTTGTTTTCAATGACTACCTGT,2.13
19,TTCTAGATGACCCCTCTCTACTGGTAAGCA,3.06
20,GCATGCACTGGGGTTTAAAGTTTATAGGCT,-0.0544
